Over roughly 33,000 sequences, “E-score (-0.5 to 0.5)” has its median near -0.053; the highest 2% begin near 0.37. The list shows a part of the results.
Target: Hap1 (UniProt P0CE41)
Assay: PBM E-score (8-mer binding enrichment) (E-score (-0.5 to 0.5)); higher = stronger / more preferred TF binding; most listed sequences are background and not binding sites
Details: protein concentration: 200 nM; construct: GST-DNA-binding domain
Summary of the method: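 Yeast transcription factors, full-length or as DNA-binding domains, were expressed with a GST tag using PURExpress in vitro transcription/translation. At about 100-200 nM they were applied to universal all-10-mer Agilent arrays, double-stranded by primer extension on fresh or once-stripped slides. Fluorescent anti-GST detected bound protein, and masliner normalised the scans. E-scores for ungapped eight-base words, pooled with reverse complements, came from the Universal PBM Analysis Suite.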

UniProt P0CE41, sequence (P0CE41 whole entry): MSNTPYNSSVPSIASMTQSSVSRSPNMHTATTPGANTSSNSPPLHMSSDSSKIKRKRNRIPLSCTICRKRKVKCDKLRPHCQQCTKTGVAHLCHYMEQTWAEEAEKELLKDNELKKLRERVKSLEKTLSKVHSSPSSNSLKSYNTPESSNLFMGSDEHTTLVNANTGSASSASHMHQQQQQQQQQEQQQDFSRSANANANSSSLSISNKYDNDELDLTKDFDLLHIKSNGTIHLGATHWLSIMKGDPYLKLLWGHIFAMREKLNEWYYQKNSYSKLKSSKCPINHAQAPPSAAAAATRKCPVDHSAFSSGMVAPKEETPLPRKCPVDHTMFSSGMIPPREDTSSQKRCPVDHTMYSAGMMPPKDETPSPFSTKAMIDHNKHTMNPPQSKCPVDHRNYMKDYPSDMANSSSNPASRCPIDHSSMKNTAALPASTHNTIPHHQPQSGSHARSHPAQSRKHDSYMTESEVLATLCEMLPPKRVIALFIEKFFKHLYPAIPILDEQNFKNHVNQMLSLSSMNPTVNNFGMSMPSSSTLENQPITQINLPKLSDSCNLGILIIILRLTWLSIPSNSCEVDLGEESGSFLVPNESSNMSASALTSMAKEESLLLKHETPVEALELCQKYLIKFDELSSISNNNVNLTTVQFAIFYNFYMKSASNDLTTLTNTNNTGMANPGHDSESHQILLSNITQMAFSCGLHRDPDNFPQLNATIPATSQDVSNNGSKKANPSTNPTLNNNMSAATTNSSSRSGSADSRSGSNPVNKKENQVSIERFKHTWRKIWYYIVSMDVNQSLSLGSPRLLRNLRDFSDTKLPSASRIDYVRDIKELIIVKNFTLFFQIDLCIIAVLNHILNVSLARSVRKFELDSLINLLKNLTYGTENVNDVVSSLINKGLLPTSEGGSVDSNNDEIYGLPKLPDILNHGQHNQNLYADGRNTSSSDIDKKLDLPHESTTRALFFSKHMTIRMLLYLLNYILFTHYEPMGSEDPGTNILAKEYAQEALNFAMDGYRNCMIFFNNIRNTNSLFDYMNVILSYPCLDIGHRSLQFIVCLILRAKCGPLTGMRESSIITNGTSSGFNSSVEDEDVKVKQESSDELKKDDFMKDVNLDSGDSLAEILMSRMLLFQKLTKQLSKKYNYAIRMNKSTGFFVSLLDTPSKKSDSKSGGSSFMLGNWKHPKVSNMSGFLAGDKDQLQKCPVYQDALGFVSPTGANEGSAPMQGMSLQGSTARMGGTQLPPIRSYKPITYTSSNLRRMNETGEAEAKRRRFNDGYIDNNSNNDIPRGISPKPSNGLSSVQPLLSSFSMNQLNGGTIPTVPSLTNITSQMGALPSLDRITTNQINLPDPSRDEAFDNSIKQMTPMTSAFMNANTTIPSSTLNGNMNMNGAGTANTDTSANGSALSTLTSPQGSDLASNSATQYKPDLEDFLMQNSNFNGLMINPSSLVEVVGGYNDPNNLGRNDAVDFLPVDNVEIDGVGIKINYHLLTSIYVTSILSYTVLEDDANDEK

| Sequence | PBM E-score |
| --- | --- |
| ACAAACGG | 0.166 |
| AGAGCTCC | -0.00702 |
| ACTCACTA | -0.19 |
| ATCGGCAG | 0.315 |
| ATACAGAC | -0.152 |
| ATAGAGAC | -0.157 |
| GAGATAAC | 0.216 |
| GTAGATCA | 0.145 |
| GTAAGTAA | -0.0427 |
| CGAGTAGC | 0.109 |
| AAAAGATC | -0.112 |
| TGAAGTAA | -0.107 |
| ACTTAACC | -0.00614 |
| GAGCTCCC | 0.0706 |
| ATCAGGAG | 0.0213 |
| AGCGCCAC | -0.14 |
| AGCTTCAC | -0.218 |
| CTTATTCC | 0.202 |
| CGGCGACC | 0.306 |
| TACCTGGA | -0.107 |
| ACATGCGC | -0.00623 |
| AAGGGGAC | -0.0576 |
| TGCTATAA | -0.149 |
| AATAAATT | 0.0772 |
| GTAATCTA | -0.0403 |

| Sequence | PBM E-score |
| --- | --- |
| CACCATGG | -0.302 |
| ACGCGCTC | 0.00375 |
| ATCTACAA | -0.162 |
| CCCTGTCG | -0.0821 |
| AGCCTAAA | -0.137 |
| ATCAGGTA | -0.134 |
| ATAGTGAG | -0.212 |
| AAGTGGAC | -0.0108 |
| CACATGCA | -0.126 |
| GCCACCCC | -0.0465 |
| ACAGACGT | -0.0978 |
| CACATATA | -0.138 |
| TGAAGTCA | -0.0916 |
| CATTGATA | 0.0354 |
| CCCTGGAC | -0.234 |
| GCCTATTA | 0.0453 |
| CACGACAG | -0.122 |
| CATGAACA | -0.122 |
| AATTCTCC | 0.234 |
| AGGCCGCG | 0.0338 |
| CAAACTCG | 0.0982 |
| AGTATGAG | -0.101 |
| CGTTAGAC | 0.0614 |
| ATTCGCAC | 0.0665 |
| GATAGAGA | 0.00974 |

| Sequence | PBM E-score |
| --- | --- |
| ACCGGAAT | 0.36 |
| CAAATGAG | -0.115 |
| GAACGGAA | 0.282 |
| AAAACGAA | 0.0585 |
| AGCCCGTC | 0.0072 |
| CGGATGCC | 0.125 |
| AATATTGG | -0.0469 |
| AATGGTTG | 0.0245 |
| GTTCGAAC | 0.0408 |
| CTTAAGGA | -0.0778 |
| ATGCTCTC | -0.159 |
| ACGTGGCG | -0.231 |
| TATATAGA | -0.0775 |
| AGGTGCGG | 0.219 |
| ATCGAAAG | -0.0567 |
| GGTGCACA | -0.0927 |
| AAACATTT | -0.119 |
| AAGACAGA | -0.12 |
| ACCGCACT | 0.16 |
| CCTATTTA | 0.0388 |
| AGGAACCC | -0.0569 |
| AATAACAG | -0.0726 |
| CAACAGGA | -0.205 |
| ATACCCGC | 0.253 |
| CTACGGGA | 0.134 |

| Sequence | PBM E-score |
| --- | --- |
| AGTCGAAG | -0.235 |
| ACCTCGCT | 0.0563 |
| TGTGCACA | -0.212 |
| CAACGTAG | -0.25 |
| ATACGACG | 0.0411 |
| GCAGACGA | -0.028 |
| CCGTTAGA | 0.318 |
| GCGGCACC | 0.0384 |
| CGCTCTTA | 0.157 |
| CTGACCCA | -0.119 |
| CCCGTTGC | -0.0454 |
| GCTGCGAC | -0.234 |
| GCAAGTTA | 0.0009 |
| CGCGGAGC | 0.274 |
| CATAGTGC | -0.0586 |
| GGTTTGAA | 0.0975 |
| AAGTTAGC | -0.0552 |
| ATATTCCG | 0.318 |
| AGTGTGTC | -0.0863 |
| ACACCCGT | 0.136 |
| GTCCGAAA | 0.421 |
| CGCAAGGA | -0.104 |
| GGGCTATA | -0.0464 |
| ACCACTAA | -0.152 |
| ACGACAAT | -0.0773 |

| Sequence | PBM E-score |
| --- | --- |
| AAGGTGGT | -0.0796 |
| CGAACAAG | 0.121 |
| ATTAGAGA | -0.186 |
| GCATGATA | -0.102 |
| CCAGTCAG | -0.243 |
| CAAAGAAG | -0.05 |
| CCATGGAG | -0.15 |
| GACAGCAC | 0.197 |
| GACAGAAA | -0.0244 |
| AGCGGGTC | 0.126 |
| AACTCGCA | -0.29 |
| GCACATTA | -0.0162 |
| AGGAGGGG | -0.241 |
| AAATTGAA | -0.241 |
| CTCACGAA | -0.307 |
| ATATGGGA | -0.0202 |
| CCTAGCCA | -0.234 |
| AAGAGAAC | -0.128 |
| CGGCTTAC | 0.128 |
| AAGGAAAT | -0.0822 |
| ATCTGTCC | 0.106 |
| CGCAGCAG | -0.108 |
| GTGCCGAA | 0.237 |
| AGGCAGGA | -0.229 |
| AAGAACAG | -0.248 |

| Sequence | PBM E-score |
| --- | --- |
| CGAGAGTC | -0.0408 |
| AGTTGTAC | 0.0584 |
| CTATTCTC | 0.165 |
| CTGGGCAC | -0.129 |
| CATACTAA | -0.234 |
| ACTGATAA | -0.174 |
| ACTCCTCT | -0.0603 |
| TAGAGATA | 0.0856 |
| CCGACGTC | 0.29 |
| ACTGGATA | 0.0587 |
| CTTGCTAC | -0.174 |
| ACACTTAA | -0.171 |
| AACCCCGT | 0.329 |
| ATGTAGGG | 0.0517 |
| ATTAATCC | 0.189 |
| CCCACGCA | -0.15 |
| TCTGCTAA | -0.0319 |
| ACGTGGTC | -0.191 |
| AGTTAATG | -0.0334 |
| CTTGACGA | -0.192 |
| GATACCAA | 0.0899 |
| CTCGCAAC | -0.237 |
| GCCTACGC | -0.271 |
| AATAATAG | -0.0859 |
| CATCGCGC | 0.0953 |

| Sequence | PBM E-score |
| --- | --- |
| AAAGTATG | -0.0965 |
| ACGTGGTA | -0.169 |
| CAAAAAAG | -0.0757 |
| AGCGAATC | 0.0408 |
| GATACTCC | 0.0862 |
| GCCTAGAC | -0.0841 |
| CAGTATAA | -0.00182 |
| AAACAGTC | -0.31 |
| TCGTTTCA | -0.0813 |
| CGAGTCGA | -0.0614 |
| ACATTGCC | -0.00388 |
| CGGGAGAG | 0.0704 |
| TCGAAGAA | -0.122 |
| ACAGAAAT | -0.108 |
| ACCTGTAA | -0.0772 |
| CCCAGTAA | -0.148 |
| GCGTTAAC | 0.16 |
| CTTTATGC | -0.0571 |
| ACATCGAG | -0.128 |
| TTGTAAAA | -0.116 |
| CCCTCCAA | -0.119 |
| ACTATCTG | -0.196 |

Reference: the supplement of paper PMC3334620
